Out of some 340,000 compounds screened, about 12,000 (3.5%) were called active. The inconclusive results got no clear call from the source; some entries with a clear call stand among them for comparison. The call rests on the fitted dose curve; in most records, active means well fitted inhibition curve with a large enough effect; inconclusive means small, poorly fitted or top-dose-only effect, or another doubt; inactive means no such curve, though single readings can be large or run the other way. Potencies of inconclusive entries are left out as doubtful fits.
Experiment: qHTS Assay for Inhibitors of Hepatitis C Virus (HCV)
Conditions: Huh7.5.1 HCVcc-Cre (HCVcc is cell-culture hepatitis C virus) infection, luciferase reporter, 44 h; activity change, negative = inhibition: at 41.8 µM (top of the series) unless noted
How it was run: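 Compounds are dispensed onto cells plated 4 h earlier at 1,000 per well, with HCVcc-Cre virus (about 0.5 moi) added next. Following 44 h of culture, luminescent signal is measured for 15 sec after 15 min with substrate at room temperature.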
On the % scale 0 is the no-effect control and ±100 the full control effect; potency means the concentration at half of the fitted maximal effect; tags describe the fitted curve by direction and shape.

| SMILES | Potency | activity change, negative = inhibition |
| --- | --- | --- |
| NCCSc1c(-c2ccc(Cl)cc2)[nH]c2ccccc12 | inconclusive [inhibitor, single point] | – |
| Cc1ccc2[nH]cc(S(=O)(=O)c3ccc(C(C)C)cc3)c(=O)c2c1 | inconclusive [inhibitor, single point] | – |
| Oc1ccc(C[C@@H]2CNCCN2CC2(c3ccccc3)CC2)cc1 | inconclusive [inhibitor, full curve] | – |
| CCOc1ccc(CCNC(=O)COC(=O)c2c(C)nn(-c3ccccc3)c2C)cc1OCC | inconclusive [inhibitor, partial curve] | – |
| CCC1(c2ccc(F)cc2)NC(=O)N(CC(=O)N2CC(=O)Nc3ccccc32)C1=O (centres undefined) | – | inactive: -2.51% |
| Cc1nc2ccccc2c2c1C(=O)N(C)C2=O | inconclusive [inhibitor, single point] | – |
| C=CCc1ccc(OCC(O)CN2CCN(c3ccccc3OC)CC2)c(OC)c1 (centres undefined) | inconclusive [inhibitor, partial curve] | – |
| CC(=O)c1ccc(NC(=O)CN2CCN(S(=O)(=O)c3ccc4ccccc4c3)CC2)cc1 | inconclusive [inhibitor, partial curve, poor fit] | – |
| O=C1C=C(c2ccc3c(c2)OCO3)CCC1 | inconclusive [inhibitor, single point] | – |
| CC(C)CNC(=S)N(CCCN(C)C)Cc1cc2cc3c(cc2[nH]c1=O)OCCO3 | – | inactive: -7.85% |
| COc1ccc(NC(=O)CSc2ccc(NC(C)=O)cc2)cc1S(=O)(=O)N1CCOCC1 | – | inactive: -0.113% |
| CCOC(=O)C1CCCN(S(=O)(=O)c2ccc(S(=O)(=O)N(CC)CC)cc2)C1 (centres undefined) | active: 0.891 µM | – |
| Cc1cc(NC(=O)CSc2ccc(Cl)cc2)no1 | – | inactive: 11.6% |
| COc1ccc(NC(=S)N2CCCC2)cc1 | – | inactive: 22% |
| c1ccc2sc(NC3=NCN(CCN4CCOCC4)CN3)nc2c1 | – | inactive: -12.3% |
| CCOC(=O)N1CCN(C(=O)C2CCN(C(=O)c3ccc([N+](=O)[O-])cc3)CC2)CC1 | – | inactive: 12.3% |
| Cc1ccccc1-c1nnc(SC(C)C(=O)NC2CCCC2)o1 (centres undefined) | inconclusive [inhibitor, single point] | – |
| O=S(=O)(c1ccccc1Cl)N1CCCC1c1nc(-c2cccc(Cl)c2)no1 (centres undefined) | inconclusive [inhibitor, single point] | – |
| CN1C(=S)SC(/[N+]([O-])=C\c2ccccc2F)C1(C)C (centres undefined) | – | inactive: 22.8% |
| O=C1CCCN1c1ccc(S(=O)(=O)NCc2ccco2)cc1 | inconclusive [inhibitor, single point] | – |
| COc1ccc(/C=C2/CCC(CN3CCOCC3)C2=O)cc1 (centres undefined) | active: 5.01 µM | – |
| C#CCOCCOCCOCCNc1nc(N2CCN(C(=O)CCCCCCCCCCNC(=O)Cn3cc(C[C@@H](C)O)nn3)CC2)nc(N2CCN(C(=O)CCCCCCCCCCNC(=O)[C@@H](CCC(=O)O)n3cc(CCCCCN)nn3)CC2)n1 | – | inactive: 11.5% |
| COc1ccc(C(=O)Nc2nc3cc4c(cc3s2)OCO4)c(OC)c1 | inconclusive [inhibitor, partial curve] | – |

| SMILES | Potency | activity change, negative = inhibition |
| --- | --- | --- |
| CC(=O)c1nn(-c2cccc(Br)c2)cc1C(=O)c1cccc2ccccc12 | inconclusive [inhibitor, partial curve, poor fit] | – |
| O=C(Cn1c(=O)cnc2ccccc21)NNC(=O)c1ccccc1Cl | – | inactive: 13.5% |
| Cc1nccc(-c2ccc(-n3cnc4ccccc43)cc2)n1 | inconclusive [inhibitor, single point] | – |
| CCc1nc(N2CCN(S(=O)(=O)c3ccc(Br)cc3)CC2)c2c(C)c(C)sc2n1 | active: 12.6 µM | – |
| COCCNc1nc(SCC(=O)N2CCN(c3ccccc3OC)CC2)nc2ccccc12 | active: 10 µM | – |
| COc1cc(/C=C2\SC(=O)N(CCN)C2=O)ccc1OS(=O)(=O)c1cc(C)ccc1C | active: 12.6 µM | – |
| Cc1ccccc1OCCNc1cc(N2CC(C)NC(C)C2)ccc1[N+](=O)[O-] (centres undefined) | inconclusive [inhibitor, partial curve] | – |
| COc1ccc(C)cc1NC(=O)Nc1ccccc1SC | inconclusive [inhibitor, partial curve] | – |
| COc1ccccc1NC(=O)CNC(=O)c1ccccc1C | inconclusive [inhibitor, single point] | – |
| O=C(/C=C1\NC2(CCCC2)Cc2ccccc21)N1CCOCC1 | inconclusive [inhibitor, partial curve] | – |
| Cc1ccc(-n2ncc3c2CC(C)(C)CC3NC(=O)c2ccccn2)cc1 (centres undefined) | inconclusive [inhibitor, single point] | – |
| Cc1ccc(S(=O)(=O)c2nc(-c3ccccc3)oc2NCCCN2CCOCC2)cc1 | – | inactive: 10.4% |
| Cc1cccc(C)c1OCC(=O)Nc1nnc(C2CCCO2)s1 (centres undefined) | – | inactive: -49.4% |
| Cc1ccc(-n2c(Cc3cccs3)nnc2SCC(=O)Nc2ccc(F)c(F)c2)cc1 | inconclusive [inhibitor, partial curve, poor fit] | – |
| CCC(=O)N1c2ccc(S(=O)(=O)NCCc3ccccc3)cc2CC1C (centres undefined) | – | inactive: -29.1% |
| O=C(OCC(=O)N1CCc2ccccc21)c1ccccc1[N+](=O)[O-] | inconclusive [inhibitor, single point] | – |
| CC(C)(O)c1ccccc1CC[C@@H](SCC1(CC(=O)O)CC1)c1cccc(/C=C/c2ccc3ccc(Cl)cc3n2)c1 | inconclusive [inhibitor, single point] | – |
| CCCCc1cc(=O)oc2cc(C)cc(OCC(=O)Nc3ccccn3)c12 | inconclusive [inhibitor, partial curve] | – |
| Cc1cccc2cc(CN(Cc3ccccc3)C(=S)NCCCN(C)C)c(=O)[nH]c12 | inconclusive [inhibitor, single point] | – |
| COc1cc(C(=O)N(C)Cc2cccc(OC)c2OC)ccc1OCC(=O)Nc1cccc(C(F)(F)F)c1 | inconclusive [inhibitor, partial curve] | – |
| COc1ccc(Cl)cc1C(=O)NNC(=O)COC(=O)CC(NC(C)=O)c1ccccc1 (centres undefined) | – | inactive: 22.5% |
| Cc1nc2ccc(NC(=O)c3ccc4ccccc4n3)cc2s1 | inconclusive [inhibitor, partial curve, poor fit] | – |
| CCC(C)(C)NC(=O)CN(CC1CCCO1)C(=O)CNS(=O)(=O)c1ccccc1 (centres undefined) | – | inactive: 7.23% |

| SMILES | Potency | activity change, negative = inhibition |
| --- | --- | --- |
| CCc1nc(N2CCN(C(=O)c3ccco3)CC2)c2c3c(sc2n1)CCCC3 | inconclusive [inhibitor, partial curve] | – |
| CCC(=O)NC(C)C(c1cccs1)N1CCN(c2ccccc2)CC1 (centres undefined) | inconclusive [inhibitor, single point] | – |
| O=C(/C=C/Nc1cccc([N+](=O)[O-])c1)c1ccco1 | inconclusive [inhibitor, partial curve] | – |
| CCOC(=O)Cn1c(-c2nonc2NC(=O)c2ccccc2F)nc2ccccc21 | inconclusive [inhibitor, single point] | – |
| CCCC(C)NC(=O)c1ccc2[nH]c3c(c2c1)CC(C)CC3 (centres undefined) | inconclusive [inhibitor, partial curve] | – |
| O=C(NC(NNc1ccc([N+](=O)[O-])cc1)(C(F)(F)F)C(F)(F)F)c1ccc(Cl)cc1 | inconclusive [inhibitor, partial curve, poor fit] | – |
| CCCc1cc(=O)c2ccc(OC/C(C)=N/O)cc2o1 | inconclusive [inhibitor, single point] | – |
| Cc1ccc(S(=O)(=O)N2CCN(C(=O)/C=C/c3ccco3)CC2)cc1 | – | inactive: 8.81% |
| Cc1ccc(NC(=S)NC(=O)C2CCCC2)c(Br)c1 | inconclusive [inhibitor, partial curve] | – |
| CC(=O)N1CCc2cc(S(=O)(=O)NC(CC(C)C)C(=O)N3CCc4ccccc4C3)ccc21 (centres undefined) | – | inactive: 19.6% |
| COc1cccc(Cn2cccc(NC(=O)Nc3cccc(C#N)c3)c2=O)c1 | inconclusive [inhibitor, partial curve, poor fit] | – |
| Cc1ccc(Nc2nc(-c3ccc(S(=O)(=O)N4CCCC4)cc3)cs2)cc1C | active: 3.98 µM | – |
| COc1cc(CN2CC(=O)N(c3ccc(C)cc3)C2=S)cc(OC)c1OC | inconclusive [inhibitor, single point] | – |
| COc1ccc(CN2CCC(n3nccc3NC(=O)CCOc3ccccc3)CC2)cc1C | inconclusive [inhibitor, single point] | – |
| COc1ccc(OC)c(-c2cc(C(=O)Nc3cc(C)on3)no2)c1 | inconclusive [inhibitor, single point] | – |
| CC(C)(C)[C@@H]1COC(=O)[C@H](Cc2ccc(F)cc2)CC/C=C\C[C@@H](CC(=O)NCCO)C(=O)N1 | inconclusive [inhibitor, single point] | – |
| COc1ccc(C)cc1NC(=O)C1CCN(S(=O)(=O)c2cccc3nonc23)CC1 | – | inactive: -8.83% |
| O=S(=O)(c1cccs1)N1CN(Cc2ccc(Cl)cc2)c2nc3ccccc3nc21 | – | inactive: -0.811% |
| Nc1ncnc2c1ncn2[C@@H]1O[C@H](CNCC#Cc2ccccc2)[C@@H](O)[C@H]1O | – | inactive: -6.96% |
| O=C(O)CN1CCN(C(c2ccccc2)c2ccccc2)CC1 | – | inactive: -3.12% |
| CCOc1ccccc1CNC(=O)CCNS(=O)(=O)c1ccc2[nH]c(=O)oc2c1 | inconclusive [inhibitor, partial curve] | – |
| CCOC(=O)CC1C(=O)NCCN1C(=O)c1ccc(Cl)c(Cl)c1 (centres undefined) | – | inactive: 6.4% |
| COc1ccc(-n2nc(C(=O)NCC(=O)NCC3COc4ccccc4O3)c3ccccc3c2=O)c(OC)c1 (centres undefined) | inconclusive [inhibitor, single point] | – |
